Experimental data taken from publication PMC11911400, “Mechanism of ASF1 engagement by CDAN1” (Nature Communications, 2025).
Changes are numbered by the printed parent chain. These are yes or no findings as the source states them, for the method shown. In cells and extracts the contact can be indirect. Some results given as binding are weak or reduced against the parent protein; the word gives no strength.

Chains of the proteins cited; added tags and fusions are not shown.
UniProt Q9Y294: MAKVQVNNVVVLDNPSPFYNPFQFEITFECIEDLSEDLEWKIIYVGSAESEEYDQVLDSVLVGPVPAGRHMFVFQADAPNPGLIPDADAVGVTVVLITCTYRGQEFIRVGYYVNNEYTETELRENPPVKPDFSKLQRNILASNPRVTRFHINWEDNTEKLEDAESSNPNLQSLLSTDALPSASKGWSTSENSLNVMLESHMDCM
UniProt Q9NVP2: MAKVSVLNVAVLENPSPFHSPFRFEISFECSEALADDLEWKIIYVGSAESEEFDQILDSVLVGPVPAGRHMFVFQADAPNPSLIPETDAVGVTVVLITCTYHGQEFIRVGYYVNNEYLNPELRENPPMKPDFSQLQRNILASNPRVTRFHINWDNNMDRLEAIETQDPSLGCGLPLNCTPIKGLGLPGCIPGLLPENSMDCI

How the values were obtained:
[1] = biological target: T1, BDA1* HMHA2* ST-CDAN1 (human) (UniProt Q8IWY9); assay: pull-down; Strep-Tactin pulldown of transiently transfected ST-CDAN1 variants from Flp-In 293 T-REx lysates; endogenous ASF1A, ASF1B and CDIN1 detected by immunoblotting; IP buffer with 1% Triton X-100, 1 hr at 4 °C
T1 sequence: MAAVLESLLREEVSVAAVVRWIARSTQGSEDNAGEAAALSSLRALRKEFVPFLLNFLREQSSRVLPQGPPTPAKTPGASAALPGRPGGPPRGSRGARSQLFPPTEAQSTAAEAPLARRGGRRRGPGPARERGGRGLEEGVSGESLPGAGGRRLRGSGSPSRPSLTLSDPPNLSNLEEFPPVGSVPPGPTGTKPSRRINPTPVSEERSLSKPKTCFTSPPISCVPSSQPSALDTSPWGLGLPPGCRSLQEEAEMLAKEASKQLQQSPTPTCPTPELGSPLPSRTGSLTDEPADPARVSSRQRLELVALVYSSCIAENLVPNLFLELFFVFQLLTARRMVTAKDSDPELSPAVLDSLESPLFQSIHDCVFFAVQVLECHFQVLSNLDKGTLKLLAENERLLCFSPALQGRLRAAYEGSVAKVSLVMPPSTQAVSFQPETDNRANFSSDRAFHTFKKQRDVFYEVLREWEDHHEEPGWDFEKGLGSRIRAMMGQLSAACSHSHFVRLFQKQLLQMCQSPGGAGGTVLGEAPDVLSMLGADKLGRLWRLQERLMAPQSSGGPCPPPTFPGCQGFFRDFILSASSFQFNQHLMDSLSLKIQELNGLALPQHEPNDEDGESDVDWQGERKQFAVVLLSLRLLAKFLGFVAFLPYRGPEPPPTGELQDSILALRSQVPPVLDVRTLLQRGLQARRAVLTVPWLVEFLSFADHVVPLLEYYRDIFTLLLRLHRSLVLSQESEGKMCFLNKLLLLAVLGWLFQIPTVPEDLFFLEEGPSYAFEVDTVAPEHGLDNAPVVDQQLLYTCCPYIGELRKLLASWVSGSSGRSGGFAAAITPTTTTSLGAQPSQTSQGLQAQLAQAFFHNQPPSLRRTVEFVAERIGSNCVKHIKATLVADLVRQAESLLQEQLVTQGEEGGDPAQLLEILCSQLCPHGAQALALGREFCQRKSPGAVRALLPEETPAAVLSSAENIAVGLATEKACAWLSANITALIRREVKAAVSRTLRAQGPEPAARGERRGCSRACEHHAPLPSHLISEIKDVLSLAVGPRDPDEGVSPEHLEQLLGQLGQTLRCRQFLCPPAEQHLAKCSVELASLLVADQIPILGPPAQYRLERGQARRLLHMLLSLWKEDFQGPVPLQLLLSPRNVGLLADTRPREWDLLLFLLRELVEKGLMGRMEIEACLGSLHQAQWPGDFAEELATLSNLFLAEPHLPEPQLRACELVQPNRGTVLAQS

[2] = biological target: T2, HMHA1* BDA1* ST-CDAN1 (human) (UniProt Q8IWY9); assay: as above
T2 sequence: T1 sequence with A251R, A255R, A258R, R541A, R544A, R548A

Substance | binding [1] | binding [2]
endogenous ASF1A (from UniProt Q9Y294 1-204) | binds | binds
endogenous ASF1B (from UniProt Q9NVP2 1-202) | binds | no binding
